Measured values published in the supplement of paper PMC8728848.
The other results are listed elsewhere or left out.

Key:
Experiment in all cases: glycan array binding signal (z-score within array); higher = stronger binding
Conditions in all cases: glycan notation: IUPAC condensed, linker removed
[1] = target: GalNAc(b1-3)GalNAc
How it was run: (§1)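 The binding signal is a Z-score computed within each array. Data were drawn from 3228 arrays in the Consortium for Functional Glycomics database, restricted to those with a known protein sequence. Scores were averaged over arrays of the same protein sequence at different concentrations or buffers, and over linkers, and negative values can be taken as non-binding.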

[2] = target: GalNAc(b1-4)GlcNAc
How it was run: as §1

[3] = target: Glc(a1-4)Glc
How it was run: as §1

[4] = target: Glc(b1-4)Glc
How it was run: as §1

[5] = target: Glc(b1-6)Glc
How it was run: as §1

[6] = target: GlcNAc(b1-2)Gal(b1-3)GalNAc
How it was run: as §1

[7] = target: GlcNAc(b1-3)Gal
How it was run: as §1

[8] = target: GlcNAc(b1-3)Gal(b1-3)GalNAc
How it was run: as §1

[9] = target: GlcNAc(b1-3)Gal(b1-4)Glc
How it was run: as §1

[10] = target: GlcNAc(b1-3)Gal(b1-4)GlcNAc
How it was run: as §1

[11] = target: GlcNAc(b1-3)[GlcNAc(b1-6)]GalNAc
How it was run: as §1

[12] = target: GlcNAc(b1-3)[GlcNAc(b1-6)]GlcNAc(b1-4)GlcNAc
How it was run: as §1

[13] = target: GlcNAc(b1-4)GlcNAc(b1-4)GlcNAc
How it was run: as §1

[14] = target: GlcNAc(b1-4)[GlcNAc(b1-6)]GalNAc
How it was run: as §1

[15] = target: GlcNAc(b1-6)GalNAc
How it was run: as §1

[16] = target: Kdn(a2-3)Gal(b1-3)GlcNAc
How it was run: as §1

[17] = target: Kdn(a2-3)Gal(b1-4)GlcNAc
How it was run: as §1

[18] = target: Man(a1-2)Man(a1-2)Man(a1-3)Man
How it was run: as §1

[19] = target: Man(a1-2)Man(a1-2)Man(a1-6)[Man(a1-3)]Man
How it was run: as §1

[20] = target: Man(a1-2)Man(a1-3)Man
How it was run: as §1

[21] = target: Man(a1-2)Man(a1-3)[Man(a1-2)Man(a1-6)]Man
How it was run: as §1

[22] = target: Man(a1-2)Man(a1-3)[Man(a1-2)Man(a1-6)]Man(a1-6)[Man(a1-2)Man(a1-2)Man(a1-3)]Man(b1-4)GlcNAc(b1-4)GlcNAc
How it was run: as §1

[23] = target: Man(a1-2)Man(a1-3)[Man(a1-2)Man(a1-6)]Man(a1-6)[Man(a1-3)[Man(a1-6)]Man(a1-6)]Man(b1-4)GlcNAc(b1-4)GlcNAc
How it was run: as §1

[24] = target: Man(a1-2)Man(a1-3)[Man(a1-6)]Man(a1-6)[Man(a1-2)Man(a1-3)]Man(b1-4)GlcNAc(b1-4)GlcNAc
How it was run: as §1

[25] = target: Man(a1-2)Man(a1-6)[Man(a1-3)]Man(a1-6)[Man(a1-2)Man(a1-2)Man(a1-3)]Man(b1-4)GlcNAc(b1-4)GlcNAc
How it was run: as §1

[26] = target: Man(a1-3)[Man(a1-6)]Man
How it was run: as §1

[27] = target: Man(a1-3)[Man(a1-6)]Man(a1-6)[Man(a1-3)]Man(b1-4)GlcNAc(b1-4)GlcNAc
How it was run: as §1

[28] = target: Neu5Ac(a2-3)Gal
How it was run: as §1

[29] = target: Neu5Ac(a2-3)Gal(b1-3)GalNAc
How it was run: as §1

[30] = target: Neu5Ac(a2-3)Gal(b1-3)GalNAc6S
How it was run: as §1

[31] = target: Neu5Ac(a2-3)Gal(b1-3)GlcNAc
How it was run: as §1

[32] = target: Neu5Ac(a2-3)Gal(b1-3)[Fuc(a1-4)]GlcNAc
How it was run: as §1

[33] = target: Neu5Ac(a2-3)Gal(b1-3)[Neu5Ac(a2-3)Gal(b1-4)]GlcNAc
How it was run: as §1

[34] = target: Neu5Ac(a2-3)Gal(b1-3)[Neu5Ac(a2-6)]GalNAc
How it was run: as §1

[35] = target: Neu5Ac(a2-3)Gal(b1-4)Glc
How it was run: as §1

[36] = target: Neu5Ac(a2-3)Gal(b1-4)GlcNAc
How it was run: as §1

[37] = target: Neu5Ac(a2-3)Gal(b1-4)GlcNAc(b1-3)Gal(b1-4)GlcNAc
How it was run: as §1

[38] = target: Neu5Ac(a2-3)Gal(b1-4)GlcNAc(b1-3)Gal(b1-4)GlcNAc(b1-3)Gal(b1-4)GlcNAc
How it was run: as §1

[39] = target: Neu5Ac(a2-3)Gal(b1-4)GlcNAc6S
How it was run: as §1

[40] = target: Neu5Ac(a2-3)Gal(b1-4)[Fuc(a1-3)]GlcNAc
How it was run: as §1

[41] = target: Neu5Ac(a2-3)Gal(b1-4)[Fuc(a1-3)]GlcNAc(b1-3)Gal
How it was run: as §1

[42] = target: Neu5Ac(a2-3)Gal(b1-4)[Fuc(a1-3)]GlcNAc(b1-3)Gal(b1-4)GlcNAc
How it was run: as §1

[43] = target: Neu5Ac(a2-3)Gal(b1-4)[Fuc(a1-3)]GlcNAc(b1-3)Gal(b1-4)[Fuc(a1-3)]GlcNAc(b1-3)Gal(b1-4)[Fuc(a1-3)]GlcNAc
How it was run: as §1

[44] = target: Neu5Ac(a2-3)Gal(b1-4)[Fuc(a1-3)]GlcNAc6S
How it was run: as §1

[45] = target: Neu5Ac(a2-3)Gal6S(b1-4)GlcNAc
How it was run: as §1

[46] = target: Neu5Ac(a2-3)GalNAc
How it was run: as §1

[47] = target: Neu5Ac(a2-3)[GalNAc(b1-4)]Gal(b1-4)Glc
How it was run: as §1

[48] = target: Neu5Ac(a2-3)[GalNAc(b1-4)]Gal(b1-4)GlcNAc
How it was run: as §1

[49] = target: Neu5Ac(a2-3)[Neu5Ac(a2-6)]GalNAc
How it was run: as §1

[50] = target: Neu5Ac(a2-6)Gal
How it was run: as §1

[51] = target: Neu5Ac(a2-6)Gal(b1-4)Glc
How it was run: as §1

[52] = target: Neu5Ac(a2-6)Gal(b1-4)GlcNAc
How it was run: as §1

[53] = target: Neu5Ac(a2-6)Gal(b1-4)GlcNAc(b1-3)Gal(b1-4)GlcNAc
How it was run: as §1

[54] = target: Neu5Ac(a2-6)Gal(b1-4)GlcNAc(b1-3)Gal(b1-4)[Fuc(a1-3)]GlcNAc(b1-3)Gal(b1-4)[Fuc(a1-3)]GlcNAc
How it was run: as §1

[55] = target: Neu5Ac(a2-6)Gal(b1-4)GlcNAc6S
How it was run: as §1

[56] = target: Neu5Ac(a2-6)GalNAc
How it was run: as §1

[57] = target: Neu5Ac(a2-8)Neu5Ac
How it was run: as §1

[58] = target: Neu5Ac(a2-8)Neu5Ac(a2-3)Gal(b1-4)Glc
How it was run: as §1

[59] = target: Neu5Ac(a2-8)Neu5Ac(a2-3)[GalNAc(b1-4)]Gal(b1-4)Glc
How it was run: as §1

[60] = target: Neu5Ac(a2-8)Neu5Ac(a2-8)Neu5Ac
How it was run: as §1

[61] = target: Neu5Ac(a2-8)Neu5Ac(a2-8)Neu5Ac(a2-3)Gal(b1-4)Glc
How it was run: as §1

[62] = target: Neu5Ac(a2-8)Neu5Ac(a2-8)Neu5Ac(a2-3)[GalNAc(b1-4)]Gal(b1-4)Glc
How it was run: as §1

[63] = target: Neu5Ac(b1-6)GalNAc
How it was run: as §1

[64] = target: Neu5Ac(b2-6)Gal(b1-4)GlcNAc
How it was run: as §1

[65] = target: Neu5Ac9Ac(a2-6)Gal(b1-4)GlcNAc
How it was run: as §1

[66] = target: Neu5Gc(a2-3)Gal(b1-3)GlcNAc
How it was run: as §1

[67] = target: Neu5Gc(a2-3)Gal(b1-3)[Fuc(a1-4)]GlcNAc
How it was run: as §1

[68] = target: Neu5Gc(a2-3)Gal(b1-4)Glc
How it was run: as §1

[69] = target: Neu5Gc(a2-3)Gal(b1-4)GlcNAc
How it was run: as §1

[70] = target: Neu5Gc(a2-3)Gal(b1-4)[Fuc(a1-3)]GlcNAc
How it was run: as §1

[71] = target: Neu5Gc(a2-6)Gal(b1-4)GlcNAc
How it was run: as §1

[72] = target: Neu5Gc(a2-6)GalNAc
How it was run: as §1

B1: CGL3 (Coprinopsis cinerea) (protein)
chain: MGHHHHHHHHSGFHILRLESTVDLSEPLKDNGIIVFQSDKLDLEPSPNLGPTGIDNTNVNLINAKGDVLLHIGIRRRENAFVFNSIPYGESRGPEERIPLEGTFGDRRDPSITVFDHPDRYQIMIDYKTVYYYKKRLEGRCEKVSYKINEGQTPPFSDVLGVTVLYFANVMPRAN
glycan array binding signal (z-score) [1]: -0.183
glycan array binding signal (z-score) [2]: 6.64
glycan array binding signal (z-score) [3]: 0.005
glycan array binding signal (z-score) [4]: -0.166
glycan array binding signal (z-score) [5]: -0.071
glycan array binding signal (z-score) [6]: -0.197
glycan array binding signal (z-score) [7]: -0.132
glycan array binding signal (z-score) [8]: -0.156
glycan array binding signal (z-score) [9]: -0.125
glycan array binding signal (z-score) [10]: -0.163
glycan array binding signal (z-score) [11]: -0.202
glycan array binding signal (z-score) [12]: -0.214
glycan array binding signal (z-score) [13]: 8.4
glycan array binding signal (z-score) [14]: -0.205
glycan array binding signal (z-score) [15]: -0.187
glycan array binding signal (z-score) [16]: -0.119
glycan array binding signal (z-score) [17]: -0.199
glycan array binding signal (z-score) [18]: 0.088
glycan array binding signal (z-score) [19]: -0.193
glycan array binding signal (z-score) [20]: -0.117
glycan array binding signal (z-score) [21]: -0.172
glycan array binding signal (z-score) [22]: -0.211
glycan array binding signal (z-score) [23]: -0.008
glycan array binding signal (z-score) [24]: -0.182
glycan array binding signal (z-score) [25]: -0.07
glycan array binding signal (z-score) [26]: -0.153
glycan array binding signal (z-score) [27]: -0.192
glycan array binding signal (z-score) [28]: -0.213
glycan array binding signal (z-score) [29]: -0.207
glycan array binding signal (z-score) [30]: -0.205
glycan array binding signal (z-score) [31]: -0.195
glycan array binding signal (z-score) [32]: -0.211
glycan array binding signal (z-score) [33]: -0.222
glycan array binding signal (z-score) [34]: -0.181
glycan array binding signal (z-score) [35]: 0.285
glycan array binding signal (z-score) [36]: -0.212
glycan array binding signal (z-score) [37]: -0.21
glycan array binding signal (z-score) [38]: -0.223
glycan array binding signal (z-score) [39]: -0.095
glycan array binding signal (z-score) [40]: -0.215
glycan array binding signal (z-score) [41]: -0.224
glycan array binding signal (z-score) [42]: -0.194
glycan array binding signal (z-score) [43]: -0.208
glycan array binding signal (z-score) [44]: -0.221
glycan array binding signal (z-score) [45]: -0.19
glycan array binding signal (z-score) [46]: -0.195
glycan array binding signal (z-score) [47]: -0.225
glycan array binding signal (z-score) [48]: -0.222
glycan array binding signal (z-score) [49]: -0.164
glycan array binding signal (z-score) [50]: -0.204
glycan array binding signal (z-score) [51]: -0.211
glycan array binding signal (z-score) [52]: -0.219
glycan array binding signal (z-score) [53]: -0.21
glycan array binding signal (z-score) [54]: -0.155
glycan array binding signal (z-score) [55]: -0.208
glycan array binding signal (z-score) [56]: -0.195
glycan array binding signal (z-score) [57]: -0.211
glycan array binding signal (z-score) [58]: -0.214
glycan array binding signal (z-score) [59]: -0.128
glycan array binding signal (z-score) [60]: -0.221
glycan array binding signal (z-score) [61]: -0.219
glycan array binding signal (z-score) [62]: -0.221
glycan array binding signal (z-score) [63]: -0.205
glycan array binding signal (z-score) [64]: -0.185
glycan array binding signal (z-score) [65]: -0.205
glycan array binding signal (z-score) [66]: -0.191
glycan array binding signal (z-score) [67]: -0.225
glycan array binding signal (z-score) [68]: -0.189
glycan array binding signal (z-score) [69]: -0.197
glycan array binding signal (z-score) [70]: -0.215
glycan array binding signal (z-score) [71]: -0.212
glycan array binding signal (z-score) [72]: -0.197
